Reference: the supplement of paper PMC10126150
Values marked as one replicate rest on one cluster of the flow cell; about a third of the high ones do not repeat.

Tested on: ATP
Test: switch fluorescence ratio, 500 uM ATP over buffer (Cy3 cluster intensity, sum of 5 cycles each) (fold (ratio)); higher = stronger signal-on switching upon ATP binding; sequences stand for … in TCGTCGGCAGCGTCAGATGTGTATAAGAGACAGTTTTTTTTTTTTTTTTTTTTTTTTT…TC
Details: aptamer strand: ATP DNA aptamer (quencher-CACCTGGGGGAGTATTGCGGAGGAAGG + anchor), 100 nM annealed; ATP concentration: 500 uM; one replicate
Method in brief: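 After annealing to 100 nM quencher-labelled ATP aptamer, Cy3-labelled switching-strand clusters on a modified Illumina MiSeq flow-cell were imaged in selection buffer. A second image followed after 15 min with 500 uM ATP at 22 °C, and five such buffer/ATP cycles were done, each separated by NaOH stripping and re-annealing. The fluorescence ratio, averaged per switch-domain sequence, is summed target-cycle over summed buffer-cycle Cy3 intensity per cluster, with clusters outside 100-1000 RFU excluded.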
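Also: ATP exposure 15 min at 22 °C before imaging.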

Sequence	switch fluorescence ratio
CTCAGAGGTA	0.993
CGTGCCTGGG	0.995
CATCGCCCCG	1
TCAGAGGTG	1.06
TTTTACCGTG	0.962
TTCTGACTCG	1.02
GTGGTTGCT	1.01
ATTATTTACG	1.03
AGGCAGAGAC	1.08
AAGCCGTCGA	1.03
GCGATGGTCT	1.06
GGGTTACGTG	0.98
ATGCACTTCG	1.04
GTTGGAGTAG	0.981
TCCTACATTC	1.06
TGCATGCGTA	0.978
AGAAAGGATA	1.04
CGTGGCAAGG	1.06
TGATCGTAGC	1.03
GGTCCAGG	1.37
CTAGCTCCT	0.994
TTTTCTGACA	1

Sequence	switch fluorescence ratio
TAGCTGTAGG	0.964
TTGCCAATTG	0.975
AGCGAGATAG	1.02
CGCCGCAGGT	1.67
TAGTATAATG	0.996
AGTAGACGGA	0.985
AACGGCTGCG	0.934
GGTGGAGCGA	1.04
CAGTCGTAGC	0.986
TTAGTATTAT	0.974
GCAGTCAAAC	1.28
TGGTACGCCC	1.05
GTTTAAATCT	1.02
ACTGATTCAT	0.966
GGCGACCTGT	0.989
CAGCCTTGAC	1.1
ATCAAAACAG	1.04
GGGATCCAG	1
GCCGCCTGTA	0.968
CACACGGCGC	1.06
CAGGACTTT	0.959
ACCTCTATGG	1.03

Sequence	switch fluorescence ratio
CCCATGAGTC	1.09
CGGTCATTTC	1.06
TCCTAGTATG	0.969
GGTTCCCTAA	1.01
TAGGCCCATA	1.05
TGGATAATCA	1.02
AATGTTCAGA	0.989
AAACCATTTG	0.997
ATACCGGGGG	1.01
AAAGGTGAAT	1.04
GCGTCGGAGC	1.01
AGGCACTCTA	1.09
ATATGTGCTG	1.04
AATTTATTT	0.984
GTGTAAGTTT	1.02
TTAGAATGAA	0.976
AGGCACAGTT	0.957
GGTCTATTAT	1.01
TATTTAACGC	0.978
TGTTGGGTA	0.965
CACCCTGACA	1.06
ATATGCAGCG	0.989

Sequence	switch fluorescence ratio
AGCAGTTGAC	1.16
AGCGGGTGGT	1
TGGCACTGCG	1.01
ATCGCTCACG	1.06
AAACGCCCTA	1.02
ATCACTATCG	0.977
CGATCACAGC	1.08
AAAATATGTC	0.993
TTTCATATC	1.06
GAAAGGCCGT	1.06
TGAAATATGA	1.05
TAGGTTACAG	1.02
TTCTAACGTT	0.996
AAAGAGACTA	1.02
ACGTGCGGGA	1.03
CTCCAGACA	1.1
GATACCTCAG	1.02
CTGAGAGTTG	0.988
TTCTCAATGG	0.998
